Results from PubChem BioAssay AID504333 (National Center for Advancing Translational Sciences (NCATS), 2011).
Among all 360,000 compounds or so, about 16,000 (4.4%) were called active. Inconclusive means that the source gave no clear call. Such entries were picked first, then a sample of the others. Calls follow the shape of the dose curve; as a rule, active = well fitted inhibition curve with a large enough effect; inconclusive = small, poorly fitted or top-dose-only effect; inactive = no such curve, though single readings can be large or run the other way. Where the call is inconclusive, the potency comes from a doubtful curve fit.

Molecular target: Bromodomain adjacent to zinc finger domain protein 2B (Homo sapiens) (UniProt Q9UIF8)
Assay: qHTS Assay for Inhibitors of BAZ2B; also: nearly all actives have a fitted effect of over 60% in size
Conditions: AlphaScreen BAZ2B-H3K14Ac peptide displacement; activity change, negative = inhibition: at 114 µM (top of the series) unless noted
In short: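 Complex of BAZ2B and biotin-H3K14Ac (50 nM apiece) forms over 30 min at RT, then faces library compounds up to 110 uM for another 30 min; AlphaScreen beads added, 20 min dark incubation, luminescence read.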
% is scaled to controls: 0 for no effect and ±100 for the full control effect; potency is read from the fitted curve at half-maximal effect; tags tell the direction and shape of the fitted curve.

UniProt Q9UIF8, sequence (Q9UIF8 whole entry, looked up, the tested form may be a part): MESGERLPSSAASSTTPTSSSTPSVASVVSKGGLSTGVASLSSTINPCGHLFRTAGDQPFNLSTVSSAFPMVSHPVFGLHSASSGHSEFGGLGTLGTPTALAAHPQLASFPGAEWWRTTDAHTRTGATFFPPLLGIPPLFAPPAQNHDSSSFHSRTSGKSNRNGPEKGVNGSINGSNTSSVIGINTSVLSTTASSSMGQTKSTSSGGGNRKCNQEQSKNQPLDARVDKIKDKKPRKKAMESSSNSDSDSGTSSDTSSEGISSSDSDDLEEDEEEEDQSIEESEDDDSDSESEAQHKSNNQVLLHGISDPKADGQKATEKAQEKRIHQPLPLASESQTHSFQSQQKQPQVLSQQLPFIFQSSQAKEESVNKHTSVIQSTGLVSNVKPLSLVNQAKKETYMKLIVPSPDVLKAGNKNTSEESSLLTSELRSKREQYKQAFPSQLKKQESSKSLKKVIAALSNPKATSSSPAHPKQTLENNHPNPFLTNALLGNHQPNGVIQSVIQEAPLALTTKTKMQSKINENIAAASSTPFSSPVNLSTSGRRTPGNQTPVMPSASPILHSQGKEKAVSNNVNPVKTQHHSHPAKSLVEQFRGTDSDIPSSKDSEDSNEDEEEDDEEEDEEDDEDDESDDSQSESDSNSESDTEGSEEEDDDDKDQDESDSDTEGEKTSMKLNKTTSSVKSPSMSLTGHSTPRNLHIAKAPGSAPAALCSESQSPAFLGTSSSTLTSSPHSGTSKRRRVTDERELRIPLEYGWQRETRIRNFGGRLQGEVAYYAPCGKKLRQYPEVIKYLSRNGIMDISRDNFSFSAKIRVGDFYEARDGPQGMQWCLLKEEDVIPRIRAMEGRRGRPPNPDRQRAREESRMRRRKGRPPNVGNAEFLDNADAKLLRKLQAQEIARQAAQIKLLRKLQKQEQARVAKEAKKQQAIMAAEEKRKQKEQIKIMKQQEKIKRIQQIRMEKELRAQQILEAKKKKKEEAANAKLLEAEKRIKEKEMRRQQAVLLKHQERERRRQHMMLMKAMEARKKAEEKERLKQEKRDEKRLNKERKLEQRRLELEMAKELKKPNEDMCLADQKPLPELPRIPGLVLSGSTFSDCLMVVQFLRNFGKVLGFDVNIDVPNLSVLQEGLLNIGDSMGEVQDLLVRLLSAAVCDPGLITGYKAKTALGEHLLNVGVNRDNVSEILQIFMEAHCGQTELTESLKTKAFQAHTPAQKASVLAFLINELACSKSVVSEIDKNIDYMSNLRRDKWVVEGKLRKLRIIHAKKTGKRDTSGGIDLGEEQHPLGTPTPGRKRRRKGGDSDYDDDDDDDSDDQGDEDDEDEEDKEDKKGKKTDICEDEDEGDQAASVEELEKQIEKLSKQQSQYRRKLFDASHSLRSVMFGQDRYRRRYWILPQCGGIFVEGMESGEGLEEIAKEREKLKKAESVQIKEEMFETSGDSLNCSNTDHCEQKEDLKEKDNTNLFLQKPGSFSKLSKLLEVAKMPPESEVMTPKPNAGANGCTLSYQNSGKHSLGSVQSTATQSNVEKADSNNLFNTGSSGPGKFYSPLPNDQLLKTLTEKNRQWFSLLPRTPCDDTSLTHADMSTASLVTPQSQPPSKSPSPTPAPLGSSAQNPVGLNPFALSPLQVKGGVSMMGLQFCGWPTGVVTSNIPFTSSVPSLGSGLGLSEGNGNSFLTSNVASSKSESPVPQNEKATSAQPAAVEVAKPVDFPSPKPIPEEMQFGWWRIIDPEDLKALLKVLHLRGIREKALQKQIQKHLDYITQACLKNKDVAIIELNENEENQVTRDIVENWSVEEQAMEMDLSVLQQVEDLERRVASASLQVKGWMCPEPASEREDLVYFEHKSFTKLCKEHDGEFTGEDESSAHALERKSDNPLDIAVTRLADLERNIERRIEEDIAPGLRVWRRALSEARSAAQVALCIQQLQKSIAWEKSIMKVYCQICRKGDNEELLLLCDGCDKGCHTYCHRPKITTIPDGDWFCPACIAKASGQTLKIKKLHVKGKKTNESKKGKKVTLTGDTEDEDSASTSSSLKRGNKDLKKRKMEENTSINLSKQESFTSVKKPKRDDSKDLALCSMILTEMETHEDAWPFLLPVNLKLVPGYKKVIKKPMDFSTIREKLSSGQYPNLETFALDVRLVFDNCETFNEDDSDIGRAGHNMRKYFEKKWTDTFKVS

| SMILES | activity change, negative = inhibition | Potency |
| --- | --- | --- |
| COc1ccc(C2=NN(C(=O)CCC(=O)O)C(c3cccs3)C2)cc1 (configuration not stated) | inactive: -6.5% |  |
| O=C(CCCNC(=O)c1ccc(Cl)cc1)Nc1ncccc1O |  | inconclusive: 70.8 µM [inhibitor, single point] |
| Cc1cc(C)n(CCC(=O)N/N=C/c2ccc(O)cc2O)n1 | inactive: 14.5% |  |
| Cc1ccc(NC(=O)CSc2nnc3ccc(-c4cccnc4)nn23)cc1 | inactive: -5.57% |  |
| O=C(Cn1cnc(Cl)c1Cl)c1ccc(F)cc1 |  | inconclusive: 100 µM [inhibitor, partial curve] |
| COc1ccc(N2CCN(CCCNC(=O)CN3C(=O)COc4ccccc43)CC2)cc1 |  | inconclusive: 50.1 µM [inhibitor, partial curve] |
| CCOc1ccc(CN2CCCN(C)CC2)cc1 |  | inconclusive: 25.1 µM [inhibitor, single point] |
| CCOC(=O)c1[nH]c(C)c(C(=O)N2CCN(c3ccccc3)CC2)c1C |  | inconclusive: 50.1 µM [inhibitor, partial curve] |
| Cc1cccc(Oc2cc([N+](=O)[O-])cc3c2C(=O)Nc2ccccc2O3)c1 |  | inconclusive: 35.5 µM [inhibitor, partial curve] |
| O=C(Nc1ccccc1F)C1CCN(S(=O)(=O)c2cccc3nonc23)CC1 | inactive: -6.84% |  |
| C#CCOCCOCCOCCNc1nc(N2CCN(C(=O)CCCCCCCCCCNC(=O)[C@H](CCCCN)n3cc(C)nn3)CC2)nc(N2CCN(C(=O)CCCCCCCCCCNC(=O)[C@H](CCCN=C(N)N)n3cc(C[C@@H](C)CC)nn3)CC2)n1 |  | inconclusive: 56.2 µM [inhibitor, partial curve] |
| COCCNC(=S)Nc1ccc2nc(N3CCOCC3)cc(C)c2c1 | inactive: -1.24% |  |
| Cc1cccc2sc(NC(=O)Cn3cccc3)nc12 |  | inconclusive: 44.7 µM [inhibitor, partial curve] |
| Cc1ccc(NC(=O)CSc2nc3ccc(NC(=O)c4ccco4)cc3s2)cc1 |  | active: 79.4 µM |
| COc1cc(C(=O)NCc2ccc3c(c2)CCN3C(=O)c2ccc(Cl)cc2)cc(OC)c1OC | inactive: -6.49% |  |
| COc1ccc(CN2CCC(Cc3ccccc3)CC2)c(C)c1C | inconclusive: -113% [inhibitor] |  |
| C=CCn1cc(/C=C2\SC(N3CCOCC3)=NC2=O)c2ccccc21 |  | inconclusive: 89.1 µM [inhibitor, single point] |
| c1ccc(CNc2ncnc3ccccc23)cc1 |  | inactive |
| CC(C)OCCCN1CN(S(=O)(=O)c2ccccc2)c2nc3ccccc3nc21 |  | inconclusive: 89.1 µM [inhibitor, single point] |
| O=C(NC(=S)Nc1ccccc1C(=O)O)c1ccc2ccccc2c1 | inactive: -22.3% |  |
| Nc1ccc(-c2nc3ccc([N+](=O)[O-])cc3[nH]2)cc1 |  | inconclusive: 79.4 µM [inhibitor, single point] |
| O=C(COc1ccccc1Br)N1CCN(c2ccccc2)CC1 |  | inconclusive: 7.08 µM [inhibitor, single point] |
| CC(=O)O/C(=C\c1cn(C(C)=O)c2ccccc12)C(=O)O |  | inconclusive: 50.1 µM [inhibitor, partial curve] |
| O=c1cc(COc2ccccc2Cl)nc2scc(-c3ccccc3)n12 |  | inconclusive: 89.1 µM [inhibitor, single point] |

| SMILES | activity change, negative = inhibition | Potency |
| --- | --- | --- |
| Cc1nn2c(N)csc2nc1=O |  | inconclusive: 89.1 µM [inhibitor, single point] |
| Cc1cc(C)c(OCC(O)CN2CCN(C(=O)c3ccccc3)CC2)c(C)c1 (configuration not stated) |  | inconclusive: 50.1 µM [inhibitor, partial curve] |
| C/C=C/c1ccc(OCC(=O)OCc2csc(Nc3ccc(C)cc3)n2)c(OC)c1 |  | inconclusive: 56.2 µM [inhibitor, partial curve] |
| CCc1nn(CC(=O)NCc2ccccc2)c(=O)c2cccn12 |  | inconclusive: 70.8 µM [inhibitor, single point] |
| O=C(C[n+]1cccc2ccccc21)c1ccccc1 | inactive: 11% |  |
| Cc1ccc(NC(=O)CNCc2ccccc2)cc1Br |  | active: 50.1 µM |
| CCOc1cc(/C=C2/SC(=S)N(CC(=O)O)C2=O)ccc1OC(=O)c1cccs1 |  | inconclusive: 39.8 µM [inhibitor, partial curve] |
| NCCNc1ccc(C(=O)N2c3ccccc3Sc3ccccc32)cc1[N+](=O)[O-] |  | active: 39.8 µM |
| CC1CCN(CCCCOc2ccccc2-c2ccccc2)CC1 |  | active: 79.4 µM |
| Fc1cccc(CN2CCSCC2)c1 |  | active: 50.1 µM |
| COc1ccc(C(=O)/C=C/Nc2ccc(S(=O)(=O)Nc3nc(C)cc(C)n3)cc2)cc1OC |  | inconclusive: 89.1 µM [inhibitor, single point] |
| COc1ccc(/C=C/C(=O)C23CC4CC(CC(C4)C2)C3)cc1CN1CCOCC1 |  | inconclusive: 39.8 µM [inhibitor, partial curve] |
| CC(C)(C)c1ccc(OCc2ccc(C(=O)NCc3cccnc3)o2)cc1 |  | inconclusive: 56.2 µM [inhibitor, partial curve] |
| NC(=O)c1ccccc1NS(=O)(=O)c1ccc2c(c1)OCCO2 |  | inconclusive: 11.2 µM [inhibitor, full curve, poor fit] |
| COc1ccc(CCNC(=O)c2ccc(Cn3c(=O)c4cccn4c4cccnc43)cc2)cc1OC |  | inconclusive: 70.8 µM [inhibitor, single point] |
| CN(C)/N=C/c1ccc(Sc2ccccc2[N+](=O)[O-])o1 |  | active: 20 µM |
| CC1Cn2c(nnc2-c2ccccc2O)S1 (configuration not stated) |  | inconclusive: 89.1 µM [inhibitor, single point] |
| O=C1C=C(c2ccc3ncccc3c2)C[C@@H](c2ccc3c(c2)OCO3)C1 |  | inconclusive: 44.7 µM [inhibitor, partial curve] |
| N#C/C(=C\c1ccc(N2CCOCC2)o1)C(=O)NCC1CCCO1 (configuration not stated) | inactive: -15.8% |  |
| CCOc1ccc(S(=O)(=O)NCc2ccccn2)cc1 |  | inconclusive: 100 µM [inhibitor, single point] |
| Cc1cccc(NC(=O)CSc2nc(-c3cccs3)nc3cc(=O)[nH]n23)c1 |  | active: 79.4 µM |
| COc1ccc(Br)cc1C(=O)Nc1ccccc1N1CCN(C(=O)c2ccccc2)CC1 | inactive: -11.6% |  |
| c1ccc2c(c1)nc1n2CCN1CCN1CCCC1 | inactive: 3.99% |  |
| CC(C(=O)Nc1ccc2c(c1)OCO2)N1CCN(C)CC1 (configuration not stated) |  | active: 44.7 µM |

| SMILES | activity change, negative = inhibition | Potency |
| --- | --- | --- |
| COc1ccc(C2=C(C)C(N3CCN(C(=O)c4ccco4)CC3)=NS2(=O)=O)cc1 |  | inconclusive: 79.4 µM [inhibitor, partial curve] |
| CC(C)n1nc(C(=O)OCn2nnc3ccccc3c2=O)c2ccccc2c1=O | inactive: 6.57% |  |
| O=C(CC(c1ccccc1)c1cc(Br)ccc1O)N1CCCC1 (configuration not stated) |  | inconclusive: 89.1 µM [inhibitor, partial curve] |
| O=C1CSC2=NCN(c3ccc4c(c3)OCO4)CN12 |  | inconclusive: 100 µM [inhibitor, single point] |
| COc1cccc(=O)c2c(C)n(C)c(C)c12 |  | inconclusive: 50.1 µM [inhibitor, partial curve] |
| Nn1cnnc1SC1CCCCC1NS(=O)(=O)c1ccccc1 (configuration not stated) |  | active: 70.8 µM |
| COC(=O)c1c(NC(=O)C2Cc3ccccc3C(=O)O2)sc2c1CCCC2 (configuration not stated) | inactive: -4.6% |  |
| CCCNC(=O)NNC(=O)c1ccc(F)cc1 | inactive: -8.16% |  |
| CN(C)c1ccc(C(C(=O)NCC2CCCO2)N(Cc2ccco2)C(=O)c2snc(C(N)=O)c2N)cc1 (configuration not stated) |  | inconclusive: 79.4 µM [inhibitor, single point] |
| CCOC(=O)c1c(S(=O)(=O)N2CCCC(C(=O)Nc3ccc(OCC)cc3)C2)c(C)n(C)c1C (configuration not stated) | inactive: 0.605% |  |
| Cc1ccc(S(=O)(=O)NCC(=O)N(CCc2ccccc2)CC(=O)NCc2ccco2)cc1 |  | inconclusive: 89.1 µM [inhibitor, single point] |
| Cc1ccc(-n2nc3c(N4CCC(C(=O)N5CCN(C)CC5)CC4)nnc(C)c3c2C)cc1 |  | inconclusive: 89.1 µM [inhibitor, single point] |
| Cc1cccc(N2CCN(C(=O)c3cccc(NC4=NC5CS(=O)(=O)CC5S4)c3)CC2)c1C (configuration not stated) |  | inconclusive: 89.1 µM [inhibitor, single point] |
| COc1cccc(C(=O)NNc2c3ccccc3nc3ccccc23)c1 |  | inconclusive: 70.8 µM [inhibitor, partial curve] |
| CC(=O)c1c(C)[nH]c(C(=O)OCC(=O)N2CCN(S(=O)(=O)c3ccc(C)cc3)CC2)c1C |  | active: 50.1 µM |
| CCOC(=O)c1c(NC(=O)COC(=O)c2ccc(C)s2)sc2c1CC(C)(C)NC2(C)C | inactive: 0.342% |  |
| COc1ccc2cc(CN(Cc3ccco3)C(=S)NCC3CCCO3)c(=O)[nH]c2c1 (configuration not stated) |  | inconclusive: 89.1 µM [inhibitor, single point] |
| Cc1cccc(NC(=O)CN(c2ccc(C(C)C)cc2)S(=O)(=O)c2c(C)nn(C)c2C)c1C |  | inconclusive: 25.1 µM [inhibitor, full curve] |
| Cc1ccc([N+](=O)[O-])cc1NC(=O)c1ccc(CSc2ccccc2)cc1 | inactive: -4.83% |  |
| COc1ccc(/C=C/C2=NC(=C\N(C)C)/C(=O)O2)cc1 |  | inconclusive: 89.1 µM [inhibitor, single point] |
| O=[N+]([O-])c1ccc(O)c(/C=N/n2c(-c3ccccc3)n[nH]c2=S)c1 | inactive: -9.5% |  |
| O=C(O)c1cc(NC(=O)c2ccc3c(c2)C(=O)N(Cc2ccccc2)C3=O)cc(C(=O)O)c1 |  | inconclusive: 89.1 µM [inhibitor, single point] |
| CCOC(=O)C1CCN(C(=O)c2ccccc2NC(=O)c2ccc(Cl)cc2)CC1 | inactive: 5.92% |  |
| CCOc1ncccc1C(=O)OCc1ccc(C(=O)OC)cc1 | inactive: 27.7% |  |
